Laboratory results: ChEMBL document CHEMBL4888484, “Replenishing the malaria drug discovery pipeline: Screening and hit evaluation of the MMV Hit Generation Library 1 (HGL1) against asexual blood stage Plasmodium falciparum ,using a nano luciferase reporter read-out” (2022)
Among all 150,000 compounds or so, about 540 (0.36%) showed an effect of 50% or more. Some of the results follow.

These molecules were tested on Plasmodium falciparum (assay: Primary screen in NF54 nanoGlo assay, in single point, at 2uM, 72h; a lower Z score goes with more inhibition). Details: timepoint 72 hour.
Assay type: functional, Erythrocyte

| Structure (SMILES) | % Inhibition | Z score |
| --- | --- | --- |
| COCCOc1cc(=O)n2c(c1C(=O)N1CCN(c3ccccc3)CC1)CCOCC2 | 1% | -0.05 |
| COc1ccc(-n2cnc(=O)c(C#N)n2)cc1 | -9% | 1.62 |
| O=C(c1ccc[nH]1)N1CCC[C@H](Cn2cc(C3CCCC3)nn2)C1 | -17% | 1.86 |
| CCN(C)C(=O)NC[C@H]1COC2(CCCCCC2)O1 | -12% | 1.87 |
| c1ccc2c(c1)OC[C@H](Cn1ccnc1-c1c[nH]cn1)O2 | -9% | 1.16 |
| O=C(c1ccc(F)c(F)c1F)N1CCC(NCC2CC2)CC1 | -2% | 0.29 |
| O=C(CC1=CCCCC1)N1CC[C@@]2(CCCN(CC3CCCCC3)C2=O)C1 | 7% | -0.93 |
| Cc1nnnn1-c1ccc(C(=O)N2CCC(=O)N3CCC[C@@H]32)c(F)c1 | 7% | -0.9 |
| O=C(O)c1ccc2c(c1)[C@@H](CNCc1cncnc1)CCC2 | -2% | 0.47 |
| COc1cn(CC(=O)NCc2ccccc2Cl)c(CO)cc1=O | -1% | 0.17 |
| O=C(NC1C(=O)c2ccccc2NC1c1ccco1)c1ccccc1 (stereo unspecified) | -26% | 3.03 |
| COc1c(F)c(F)cc(C(=O)N[C@H]2CCC23CCOCC3)c1F | 6% | -0.77 |
| O=S(=O)(CCn1nnc2ccccc21)NCC1CCCCC1 | 13% | -1.69 |
| CCCc1csc(NC(=O)c2cc[nH]n2)n1 | -4% | 0.41 |
| CC(C)N1CCN(C(=O)c2cc3c(s2)CCN(C(=O)c2ccc(Cl)cc2)C3)CC1 | -15% | 2.33 |
| Cc1ccccc1C(=O)N1[C@H](C(=O)NCc2ccco2)COC12CCN(C(=O)c1ccccc1Cl)CC2 | -2% | 0.3 |
| COc1cc(-c2cc(-c3cccnc3)c3c(ccc4ccccc43)n2)cc(Cl)c1O | 18% | -2.48 |
| CCc1nc([C@H](C)N2C(=O)N(C)C3(CCCCC3)C2=O)cs1 | 17% | -2.2 |
| Cc1ccc(CCC(=O)NCC(=O)N2CCC[C@@]2(CO)Cc2ccccc2)cc1 | -7% | 1.05 |
| Cc1ccc(CCCC(=O)NCC(=O)O)cc1 | -3% | 0.41 |
| O=C(c1cn(-c2ccc(F)cc2F)c(=O)c2ccccc12)N1CCN(Cc2ccc3c(c2)OCO3)CC1 | -5% | 0.75 |

| Structure (SMILES) | % Inhibition | Z score |
| --- | --- | --- |
| Cc1cc(C(=O)N(C)C(C)C2CN(Cc3ccccc3)CCO2)co1 (stereo unspecified) | 1% | -0.08 |
| Cc1nn(-c2ccccc2)c(N2CCC(C(=O)N[C@@H](C)c3ccccc3)CC2)c1-n1c(C)ccc1C | -5% | 0.65 |
| C[C@H](O)c1cnc(CNc2cccc3c2CCN(CC(F)(F)F)C3)s1 | -11% | 1.68 |
| CC(C)OC1CC(NC[C@H](CCO)c2ccccc2)C1 (stereo partly specified) | 27% | -3.49 |
| Cc1cc(Cl)ccc1OCC(=O)N1C2CCC1CC(=O)NC2 (stereo unspecified) | 18% | -2.27 |
| CCS(=O)(=O)N1CCC[C@H](C(=O)Nc2nc(C(C)(C)C)co2)C1 | -8% | 1.66 |
| CCn1cc(C)c(C(=O)O)c1CC(=O)Nc1ccc(Cl)cn1 | -13% | 2.35 |
| COCCN1CCN(c2ccnc(C#N)c2)CC1=O | -10% | 1.65 |
| CCOC(=O)C(NC(=O)C1CCS(=O)(=O)C1)C1CCCCCC1 (stereo unspecified) | -8% | 1.07 |
| Cc1cc(S(=O)(=O)N2CC[C@@H]3[C@@H](COCCN3Cc3ccccc3)C2)ccc1F | 35% | -3.95 |
| CCCCN1C(=O)CC[C@@H]2CN(S(=O)(=O)N3CCOCC3)CC[C@@H]21 | -12% | 1.2 |
| COc1cc2c(cc1OC)[C@H](c1cccc(Cl)c1)N(C(=O)CCC1CCCC1)CC2 | -4% | 0.59 |
| CN(C)C(=O)CN(C)S(=O)(=O)[C@H]1CCCN(C(=O)c2cccc(Cl)c2)C1 | -6% | 0.65 |
| COCc1cccc(C(=O)NCC2(N3CCOCC3)CCCCCC2)n1 | -9% | 0.92 |
| CN(C(=O)COc1ccc2ccccc2c1)[C@@H](c1cccc(F)c1)c1ccccn1 | -12% | 1.57 |
| Cc1n[nH]c(C)c1[C@H](C)N(C)C(=O)c1ccc(NC(=O)C2CCC2)cc1 | -7% | 0.91 |
| Cc1ncsc1C(=O)NCC(=O)N(C)C | -1% | 0.19 |
| CCc1nnc(Cn2ccc(-c3cccc(-c4ccc(OC)nn4)c3)n2)o1 | -4% | 0.43 |
| CCc1nsc(NCCCCc2ccnc(N)c2)n1 | 3% | -0.53 |
| CC(C)(C)CC(=O)N1C[C@@H]2Oc3ncccc3S(=O)(=O)N[C@@H]2C1 | -8% | 1.25 |
| CCc1nccn1CC(=O)N1CC[C@H](c2cccc(Cl)c2)C1 | -23% | 2.16 |

| Structure (SMILES) | % Inhibition | Z score |
| --- | --- | --- |
| FC(F)c1nnc(N2CCC(N3CCN(c4cccc(Cl)c4)CC3)CC2)o1 | 1% | -0.12 |
| CCCNc1cc(N2CCC(CCC(=O)N3CCN(c4cccc(C)c4)CC3)CC2)ncn1 | -9% | 1.46 |
| Cc1c[nH]c(C(=O)N2CCC[C@@]3(CCC(=O)N(CCc4c[nH]cn4)C3)C2)n1 | -12% | 1.84 |
| O=C(NC1CNCCC1c1ccc(F)cc1)c1ccc2nccnc2n1 (stereo unspecified) | -7% | 0.96 |
| O=C(NC1(c2cccs2)CCCC1)c1c(F)cccc1Cl | -4% | 0.75 |
| O=C(CCCc1ccccc1)NOCC(=O)Nc1cc(F)ccc1F | -3% | 0.42 |
| CCn1cc(CC(=O)Nc2c(OC)ncnc2N(C)C)cn1 | 7% | -1.44 |
| O=C(O)C1CC1C(=O)NCCC1Cc2ccccc2C1 (stereo unspecified) | -15% | 2.03 |
| COc1cccc(CN(C)C2CN(c3ccc4nncn4n3)C2)c1 | -6% | 0.65 |
| Cc1c(CO)[nH]c2ccc(-c3cccc([C@H](C)N4CCCC4)c3)cc12 | 2% | -0.29 |
| COCCN1C(=O)CC(CC(=O)N2C[C@@H](C)O[C@@H](C)C2)(c2ccccc2OC)C1=O (stereo partly specified) | -14% | 2.06 |
| COCC[C@H](C)NC(=O)NCCc1ccc(C)cc1 | -8% | 1.38 |
| CCc1nc(C)c(-c2nc3cc(-n4cnnn4)ccc3[nH]2)[nH]1 | -4% | 0.5 |
| CC(C)Nc1cccc(F)c1NC(=O)c1cncn1C | -12% | 1.63 |
| Cc1cnc(N2C[C@H](O)[C@@H](N3CCN(c4ccccn4)CC3)C2)nc1N | -10% | 1.59 |
| CCCn1nc(Cc2ccc(OC)c(OC)c2)nc1-c1cccc(=O)[nH]1 | 0% | 0.03 |
| CC[C@@H]1Oc2cc(S(=O)(=O)N3CCC(C(=O)N4CCCC4)CC3)c(C)cc2NC1=O | 6% | -0.66 |
| O=C(CN1CCOC[C@@H]1CC1CCOCC1)NC1CCCC1 | -9% | 1.71 |
| CN(C)C(=O)CN1C(=O)[C@@H]2CC[C@H]1CN(c1ncc(Cl)cc1F)C2 | 7% | -0.93 |
| O=C1CN(C(=O)Cn2nnc3c(cnn3-c3ccc(F)cc3)c2=O)c2ccccc2N1 | -25% | 2.55 |
| CCCN(CCOC)C(=O)NCc1ccc(C)c(C)c1 | -3% | 0.35 |

| Structure (SMILES) | % Inhibition | Z score |
| --- | --- | --- |
| Cn1c(NC(=O)C2CN(c3cc(-n4cccn4)ncn3)C2)cc(=O)[nH]c1=O | -6% | 1.29 |
| CCc1nc2ccccc2c(=O)n1Cc1noc([C@H]2CC(=O)N(c3ccccc3)C2)n1 | -8% | 0.93 |
| c1ccc2c([C@@H]3CCCCCN3)cccc2c1 | 6% | -0.67 |
| Cc1ncsc1CNC(=O)C1CC(OCc2ccccc2)C1 (stereo unspecified) | -14% | 1.66 |
| O=C(NCCc1ccccc1)[C@H]1CCS(=O)(=O)C1 | -13% | 1.84 |
| COc1ccc2cc(C(=O)N(C)CCC(=O)O)sc2c1 | -15% | 2.42 |
| CS(=O)(=O)N(Cc1cccnc1)C1CN(C(=O)NCCc2ccccc2)C1 | -5% | 1.04 |
| CCC[C@H]1CN(C(=O)c2[nH]c3c(C)cc(C)cc3c2C)C[C@@H]1N | -9% | 0.86 |
| COCCc1nc(Cn2cnnn2)n(-c2ccc(F)c(F)c2)n1 | -2% | 0.39 |
| CCCCC(CC)C1C2C(=O)N(c3cccc(C)c3)C(=O)C2ON1c1ccccc1 (stereo unspecified) | -8% | 1.24 |
| CC(=O)N1CCN(C(=O)c2cccc(O)c2C)[C@H]2CS(=O)(=O)C[C@H]21 | -8% | 1.28 |
| CC1CN(C(=O)C2CC2c2ccc(Br)cc2)CCN1 (stereo unspecified) | 5% | -0.66 |
| COC(=O)C1CC(O)C(N(C)Cc2cnn(-c3ccccc3)c2)C1 (stereo unspecified) | 4% | -0.48 |
| CCCn1cc(C(=O)N2CCC(C(=O)c3ccc(F)c(F)c3)CC2)c(C)n1 | -14% | 1.41 |
| Cc1ccc(-c2ccnc(N3CC[C@H]4[C@H](C3)OCc3cnnn34)n2)c(C)n1 | -1% | 0.11 |
| Cc1cc(C(=O)N2CCCS(=O)(=O)C[C@H]2c2ccccc2)no1 | -11% | 1.24 |
| CCOC(=O)C1CCCN1C(C)CC(F)(F)F (stereo unspecified) | -3% | 0.43 |
| Nc1ncc(Cl)c(-c2cnc(-c3ccc(F)cc3)s2)n1 | -8% | 1.12 |
| OCCN(Cc1cnc(C2CC2)o1)C1CC2CCC1C2 (stereo unspecified) | -12% | 1.9 |
| N#Cc1cnn(C(=O)CNC(=O)c2ccc(Br)cc2)c1N | -1% | 0.14 |
